Measurements taken from the supplement of paper PMC12217912.
This is one part of the list. The full chains were built here from the parent and the listed change. Values near 0.05 are background.

B1: TEV protease; numbered along this chain (parent)
chain: MGESLFKGPRDYNPISSSICHLTNESDGHTTSLYGIGFGPFIITNKHLFRRNNGTLVVQSLHGVFKVKDTTTLQQHLVDGRDMIIIRMPKDFPPFPQKLKFREPQREERICLVTTNFQTKSMSSMVSDTSCTFPSGDGIFWKHWIQTKDGQCGSPLVSTRDGFIVGIHSASNFTNTNNYFTSVPKNFMELLTNQEAQQWVSGWRLNADSVLWGGHKVFMVKPEEPFQPVKEATQL

Variants of: B1
Experiment: raw area under fraction-flipped curve 0-4 h after induction (AUC4h, not background-subtracted), DNA-recorder readout of cleavage of the substrate (dimensionless); higher = more cleavage of the substrate by the protease variant
Conditions: temperature: 34 °C; time window: 0-4 h after rhamnose induction
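Further: Bxb1 expression induced with 0.2% (w/v) L-rhamnose at OD600 near 0.5, cultures sampled hourly, flipped fraction per protease–substrate barcode pair counted by paired-end Illumina sequencing.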

| Variant | area with substrate ENLYCQS | area with substrate ENLYHQS | area with substrate ENLYIQS | area with substrate ENLYKQS | area with substrate ENLYMQS | area with substrate ENLYPQS | area with substrate ENLYTQS | area with substrate ENLYVQS | area with substrate ENLYDQS | area with substrate ENLYEQS | area with substrate ENLYLQS | area with substrate ENLYNQS | area with substrate ENLYGQS | area with substrate ENLYRQS | area with substrate ENLYSQS | area with substrate ENLYYQS | area with substrate ENLYQQS | area with substrate ENLYWQS |
| --- | --- | --- | --- | --- | --- | --- | --- | --- | --- | --- | --- | --- | --- | --- | --- | --- | --- | --- |
| S121A | 0.0892 | 0.0676 | 0.11 | 0.0664 | 0.0675 | 0.0654 | 0.0646 | 0.113 | – | – | – | – | – | – | – | – | – | – |
| Q146N | 0.0863 | 0.0643 | – | 0.0652 | 0.0854 | 0.0792 | 0.0779 | – | 0.0565 | 0.0448 | 0.0805 | 0.0663 | – | – | – | – | – | – |
| S158H | 0.0551 | 0.0631 | 0.0567 | 0.0302 | 0.0637 | 0.0461 | – | 0.0468 | 0.0632 | 0.0584 | 0.0465 | 0.046 | 0.0503 | 0.0559 | – | – | – | – |
| Q118G | 0.0941 | 0.061 | 0.121 | 0.0829 | – | 0.0732 | – | 0.149 | 0.0681 | 0.0785 | 0.0908 | 0.0778 | 0.0661 | 0.0699 | 0.0744 | 0.0661 | – | – |
| Q118H | 0.0805 | – | 0.127 | 0.0419 | 0.0995 | 0.0706 | 0.0758 | 0.0684 | 0.0677 | – | 0.0781 | – | – | – | 0.0685 | 0.0627 | – | – |
| G153Y | 0.0402 | – | 0.0568 | 0.0691 | 0.046 | 0.0271 | – | – | 0.0413 | 0.0342 | – | 0.0686 | – | – | – | – | 0.0547 | 0.0272 |
| R109C | 0.1 | 0.0763 | 0.108 | 0.0614 | 0.0879 | 0.0674 | – | – | 0.0862 | 0.0738 | 0.0861 | 0.073 | 0.0759 | 0.0657 | 0.0956 | 0.0428 | – | – |
| P94Q | 0.0633 | 0.0633 | 0.104 | 0.0604 | 0.0922 | 0.0766 | 0.0677 | 0.1 | 0.0604 | 0.0646 | – | 0.0591 | 0.062 | 0.0645 | 0.0788 | – | 0.0659 | 0.0782 |
| P94Y | 0.0678 | 0.0621 | 0.124 | – | 0.0821 | – | – | – | – | 0.0657 | – | 0.0707 | 0.0649 | – | – | – | 0.0583 | 0.0742 |
| M188C | 0.0943 | – | – | – | – | 0.0791 | – | 0.12 | 0.0567 | 0.0789 | – | 0.0577 | 0.0622 | 0.0489 | – | – | – | – |
| G162H | 0.0589 | 0.0632 | 0.109 | 0.0595 | 0.0747 | – | – | 0.103 | 0.0502 | 0.0643 | 0.0672 | 0.0677 | 0.0612 | – | – | 0.0549 | 0.0371 | 0.0732 |
| K100N | 0.0659 | – | 0.144 | – | 0.087 | 0.0753 | 0.0773 | 0.12 | 0.0431 | – | – | 0.0578 | 0.0661 | – | – | 0.0672 | – | 0.0312 |
| K100W | 0.0859 | – | 0.133 | – | 0.0855 | – | 0.0776 | – | – | 0.0684 | 0.0965 | – | 0.0689 | – | 0.0907 | – | – | 0.0822 |
| A196N | 0.0871 | 0.0736 | 0.145 | 0.073 | – | – | 0.0696 | 0.0958 | – | 0.0602 | 0.071 | 0.0643 | – | 0.0711 | 0.088 | – | 0.0638 | 0.0782 |
| Q151S | 0.0914 | 0.0543 | 0.13 | 0.0301 | – | 0.0708 | 0.0715 | 0.126 | – | – | – | 0.0726 | 0.113 | 0.057 | – | – | 0.1 | – |
| T132Y | 0.0341 | 0.0636 | 0.0608 | 0.0176 | 0.0694 | 0.057 | – | 0.0549 | 0.0608 | 0.0434 | – | 0.0533 | 0.0533 | – | 0.0521 | – | – | 0.0605 |
| T132F | 0.0526 | – | 0.0742 | 0.0495 | – | 0.057 | 0.0573 | 0.0512 | 0.0575 | 0.0575 | 0.0529 | 0.0395 | – | 0.0491 | 0.0499 | 0.048 | 0.0591 | – |
| S169C | 0.0753 | 0.0612 | 0.107 | 0.0751 | – | 0.072 | – | 0.0806 | 0.0552 | 0.0582 | 0.0762 | 0.0568 | 0.0569 | 0.0513 | 0.0694 | 0.0667 | 0.0521 | 0.0628 |
| E195D | 0.0897 | 0.0834 | – | – | 0.0537 | 0.0891 | – | 0.104 | – | 0.0663 | – | 0.0672 | 0.0615 | 0.0578 | 0.0777 | – | – | 0.075 |
| K148N | 0.0857 | 0.0518 | – | 0.0414 | 0.0729 | 0.0662 | 0.0742 | 0.0975 | 0.063 | 0.0715 | 0.0702 | 0.0597 | 0.0606 | 0.0658 | 0.0858 | 0.0524 | – | 0.0623 |
| V113D | 0.0617 | 0.0524 | 0.0538 | 0.0476 | 0.0502 | 0.0414 | 0.041 | – | 0.0578 | 0.0507 | – | 0.0559 | 0.0486 | 0.051 | 0.0594 | – | 0.0684 | 0.054 |
| G202N | 0.054 | – | – | – | 0.0762 | – | – | 0.0762 | – | 0.0661 | 0.0792 | 0.0665 | – | 0.0574 | 0.0454 | 0.0616 | 0.061 | – |
| G202S | 0.0581 | – | 0.0722 | 0.0776 | 0.0667 | 0.0738 | 0.0741 | 0.0725 | 0.0505 | 0.0629 | – | 0.0805 | 0.0591 | – | – | – | 0.0622 | 0.0859 |
| T159G | 0.107 | 0.0642 | 0.134 | 0.0514 | – | 0.0765 | – | 0.0944 | – | 0.0728 | 0.0859 | 0.0732 | 0.0791 | 0.0634 | – | 0.064 | – | 0.0934 |
| T159Y | 0.0571 | – | 0.106 | 0.0522 | 0.0954 | 0.0766 | 0.0759 | 0.118 | 0.0589 | 0.062 | 0.0961 | 0.0687 | 0.0608 | – | 0.0766 | 0.0816 | – | 0.0749 |
| T159E | 0.071 | 0.0592 | – | – | – | 0.0711 | – | 0.105 | 0.065 | 0.0674 | – | 0.0584 | 0.0627 | 0.0553 | 0.0825 | – | – | 0.0774 |
| I164L | 0.0794 | 0.068 | 0.118 | 0.0618 | 0.071 | 0.0543 | 0.0728 | 0.0979 | 0.0652 | 0.0542 | 0.078 | 0.0629 | 0.058 | 0.0186 | 0.0809 | 0.0683 | 0.0607 | 0.0676 |
| T147Y | 0.0588 | 0.0485 | 0.0462 | 0.0659 | 0.0625 | 0.0423 | 0.0639 | – | 0.0522 | 0.0225 | – | – | 0.0602 | – | – | – | 0.0779 | 0.0622 |
